# Assay results published in PubChem BioAssay AID504845 (National Center for Advancing Translational Sciences (NCATS), 2011).
# About 150 (0.038%) of roughly 390,000 compounds were called active. Inconclusive means that the source gave no clear call. Such entries were picked first, then a sample of the others. The call rests on the fitted dose curve; in most records, active means well fitted inhibition curve with a large enough effect; inconclusive means small, poorly fitted or top-dose-only effect; inactive means no such curve, though single readings can be large or run the other way. Potencies beside an inconclusive call are fits to weak or partial responses and may not hold up.
# Molecular target: Regulator of G-protein signaling 4 (Homo sapiens) (UniProt P49798)
# Test: Inhibitors of Regulator of G Protein Signaling (RGS) 4: qHTS; further: nearly all actives have a fitted effect of over 75% in size
# Settings: Transcreener GDP fluorescence polarization, RGS4-accelerated GTP hydrolysis; series mostly up to 114 µM
# Method in brief: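 MLSMR compounds (23 nl, pin-transferred) preincubated 10 min at room temperature with a 500nM (2x) first reagent, then RGS4 at 900nM (2x) plus Transcreener GDP mix added; fluorescence polarization (620/688 nm) read before and after 90 min at 30 °C.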
# Potency means the concentration at half of the fitted maximal effect; tags describe the fitted curve by direction and shape.
# Sequence of UniProt P49798 (P49798 whole entry, looked up): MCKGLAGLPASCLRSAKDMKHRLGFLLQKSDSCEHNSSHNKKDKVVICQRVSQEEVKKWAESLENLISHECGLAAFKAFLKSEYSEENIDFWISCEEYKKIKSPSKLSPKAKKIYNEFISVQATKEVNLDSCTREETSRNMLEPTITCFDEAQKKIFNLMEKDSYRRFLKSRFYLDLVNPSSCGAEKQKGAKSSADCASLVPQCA
row,Structure (SMILES),Potency
1,O=C(O)c1cc2c(cn1)[nH]c1ccccc12,inactive
2,CC1(C)c2ccccc2N2CC(=O)NC21/C=C/c1ccco1 (centres undefined),"inconclusive: 50.1 µM [inhibitor, partial curve, poor fit]"
3,CCOc1ccc(NC(=S)Nc2cc(-c3ccccc3)[nH]n2)cc1,"inconclusive: 89.1 µM [inhibitor, partial curve, poor fit]"
4,COc1cccc(C(=O)Nc2nc(-c3ccncc3)cs2)c1,"inconclusive: 17.8 µM [inhibitor, full curve, poor fit]"
5,CCc1nc(-c2cc(S(=O)(=O)N3CCN(c4ccc(OC)cc4)CC3)ccc2OC)no1,"inconclusive: 11.2 µM [inhibitor, full curve, poor fit]"
6,O=C(O)CCC/C=C\C[C@@H]1C(/C=C/[C@@H](O)COc2cccc(C(F)(F)F)c2)[C@@H](O)C[C@@H]1O (some centres undefined),"inconclusive: 0.0053 µM [inhibitor, full curve, poor fit]"
7,CC1CCCCC1NC(=O)c1cccc(NC2=NC3CS(=O)(=O)CC3S2)c1 (centres undefined),"inconclusive: 79.4 µM [inhibitor, partial curve, poor fit]"
8,O=C(NCc1ccccc1)c1nc(S(=O)(=O)Cc2ccc(F)cc2)ncc1Cl,"inconclusive: 11.2 µM [inhibitor, full curve, poor fit]"
9,Cc1ccc(C(=O)NC(=S)NCc2ccco2)cc1,"inconclusive: 17.8 µM [inhibitor, full curve, poor fit]"
10,Cc1cccc(-n2c(CCc3ccccc3)nnc2SCC(=O)c2ccccc2)c1,"inconclusive: 28.2 µM [inhibitor, full curve, poor fit]"
11,CCOc1ccc(OCc2ccc(C(=O)NCc3cccnc3)o2)cc1,inactive
12,CC(C(=O)Nc1ccccc1-c1ccccc1)N1CCCCC1 (centres undefined),"inconclusive: 89.1 µM [inhibitor, single point]"
13,Cc1cc(O)c(N)c(C)c1Cl,"inconclusive: 50.1 µM [inhibitor, partial curve, poor fit]"
14,COC(=O)c1cc(-c2ccc(C)o2)nc2ccccc12,"inconclusive: 28.2 µM [inhibitor, full curve, poor fit]"
15,CN(C)CC/C=C1\c2ccccc2COc2ccccc21,inactive
16,CCC(C)Oc1cc(-c2ccnc(Nc3cccc(Cl)c3)n2)ccn1 (centres undefined),"inconclusive: 44.7 µM [inhibitor, partial curve, poor fit]"
17,CC1(C)c2[nH]c3ccccc3c2C[C@@H]2C(=O)N(Cc3ccccc3Cl)C(=O)N21,inactive
18,CCc1ccccc1NC(=O)C1CCN(c2nn3c(=O)cc(C)nc3s2)CC1,inactive
19,Cc1cc(C)cc(Nc2ncc3c(n2)CC(c2ccco2)CC3=O)c1 (centres undefined),"inconclusive: 100 µM [inhibitor, partial curve, poor fit]"
20,C/C=C\C=C/C(=O)Nc1cccc(C2=NOC3(C2)C[C@@H](C(N)=O)N(C(=O)[C@H]2CCC(=O)N2)C3)c1 (some centres undefined),"inconclusive: 44.7 µM [inhibitor, partial curve, poor fit]"

row,Structure (SMILES),Potency
1,O=C(c1cccs1)N1CCN=C1SCc1ccc(Cl)cc1,"inconclusive: 50.1 µM [inhibitor, partial curve, poor fit]"
2,O=C(Nc1ccc2oc(-c3cccnc3)nc2c1)c1ccc(-c2cccc(OC(F)(F)F)c2)o1,"inconclusive: 28.2 µM [inhibitor, full curve, poor fit]"
3,C[C@]12c3[nH]c4cc(-c5ccco5)ccc4c3CCN1C(=O)[C@@H](CC(=O)NCc1cccc(C(F)(F)F)c1)C[C@@H]2C(=O)N1CCOCC1,"inconclusive: 100 µM [inhibitor, partial curve, poor fit]"
4,O=C(NCc1ccc(-c2csnn2)cc1)c1cc(Cl)cc(Cl)c1,inactive
5,Cc1ccc(/C=C/C(=O)N2CCN(S(=O)(=O)c3cccs3)CC2)o1,"inconclusive: 79.4 µM [inhibitor, partial curve, poor fit]"
6,CCOc1cc(/C=C2\C(=O)ON=C2c2ccccc2)cc(Br)c1O,"inconclusive: 28.2 µM [inhibitor, full curve, poor fit]"
7,CCCCn1c(N)c(N(CC(C)C)C(=O)c2ccc(OCC3CCCO3)cc2)c(=O)[nH]c1=O (centres undefined),"inconclusive: 89.1 µM [inhibitor, single point]"
8,COc1ccccc1NC(CC(=O)c1ccccc1)C(=O)OCC(=O)c1ccc(Br)cc1 (centres undefined),"inconclusive: 100 µM [inhibitor, single point]"
9,CCCC(C)C(=O)Nc1nc(C)c(-c2csc(Nc3ccccc3OC)n2)s1 (centres undefined),"inconclusive: 44.7 µM [inhibitor, partial curve, poor fit]"
10,Cc1ccc(Oc2nc(-c3ccccc3)ncc2S(=O)(=O)c2ccc(C)cc2)cc1,inactive
11,O=C1CCC(C(=O)OCc2cc(Cl)ccc2OC(F)F)N1 (centres undefined),"inconclusive: 44.7 µM [inhibitor, partial curve, poor fit]"
12,Cc1cccc(NCc2ccccc2O)c1,inactive
13,O=C(CC1SC(=O)N(c2ccccc2)C1=O)Nc1ccc(Cl)cc1 (centres undefined),"inconclusive: 44.7 µM [inhibitor, partial curve, poor fit]"
14,CC1CCCCC1NC(=O)COC(=O)c1c2c(nc3ccccc13)/C(=C/c1ccco1)CC2 (centres undefined),"inconclusive: 22.4 µM [inhibitor, full curve, poor fit]"
15,Cc1ccc(-n2c(N)c(C(=O)NCc3ccco3)sc2=S)cc1,"inconclusive: 50.1 µM [inhibitor, partial curve, poor fit]"
16,COC(=O)c1nn2c(C(F)(F)F)cc(-c3ccc(Br)o3)nc2c1Br,"inconclusive: 50.1 µM [inhibitor, partial curve, poor fit]"
17,NC(=O)NC(=O)C(Nc1ccc(N2CCCCC2)cc1)c1ccccc1 (centres undefined),"inconclusive: 89.1 µM [inhibitor, single point]"
18,Cc1nc(SCC(=O)NCC2COc3ccccc3O2)c2c(C)c(C)sc2n1 (centres undefined),inactive
19,CCOC(=O)c1c(-c2ccc(C)o2)csc1NC(=O)CN1CCN(CC)CC1,"inconclusive: 28.2 µM [inhibitor, full curve, poor fit]"
